# Measured values published in the supplement of paper PMC7826260.
# Some of the results follow. Viral Rep nickase domains cut single-stranded DNA in vitro (1 h at 37 °C, 3 µM enzyme); the outer parts of the 90-letter strands are left off. Values are log2 of uncut reads against the no-enzyme pool; the lower, the more was cut; hits are not called. Counts are relative to all reads; uncut strands gain when others are lost, and binding without cutting may add a little.
# System: T1, Rep nickase domain of tomato yellow leaf curl virus
# T1 sequence (residues 1-136, tag not shown): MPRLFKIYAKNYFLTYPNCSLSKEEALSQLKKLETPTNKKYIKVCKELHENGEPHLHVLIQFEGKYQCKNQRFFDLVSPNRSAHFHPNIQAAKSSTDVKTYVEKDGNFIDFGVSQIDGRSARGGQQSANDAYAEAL
# Assay: uncleaved DNA left, log2 of reads against the no-enzyme library (log2 ratio); higher = less cleavage (more negative = more Rep cleavage of the k-mer); sequences stand for … in CTCGTCCG…ACCGGAGA
# Procedure: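 A pool of 90-nt single-stranded DNAs with seven random bases just before the constant AC of the nick site (name = the seven bases) was cut by 3 µM recombinant His6-SUMO-tagged Rep nickase domain (300 nM DNA, 50 mM HEPES pH 8.0, 50 mM NaCl, 1 mM MnCl2, 1 h, 37 °C, three replicates). Uncut DNA was amplified and sequenced.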
row,Sequence,uncleaved DNA left (log2)
1,ACATCTG,0.0312
2,GGGAAGA,0.036
3,CACATAG,0.142
4,TCGATGG,-0.0677
5,GTGACCT,-0.0358
6,ATATCAC,0.0961
7,CCCTCTG,-0.165
8,GTAATAA,-0.00913
9,CAAAAGA,-0.105
10,GGCTGCT,0.00805
11,TGCAATG,-0.217
12,GCATACC,-0.0679
13,TACACCT,0.0324
14,CGTGACA,-0.0629
15,ACCTGTA,-0.0977
16,AGTACTC,-0.041
17,CATGCCG,-0.0355
18,GGTGCCC,-0.00982
19,TTTTAGA,0.0383
20,TCAGCCC,0.0687

row,Sequence,uncleaved DNA left (log2)
1,TTAATCT,0.0813
2,ATCCGAG,0.037
3,GGTAGGG,-0.045
4,CCCGGGT,-0.0887
5,TTTGACC,0.0192
6,GGGTCAG,-0.0226
7,CCAAATT,-0.207
8,AGATGCC,0.078
9,CCAACGA,0.0772
10,AATCTGG,0.153
11,TCCACAT,0.183
12,CCTGCCT,0.1
13,GCGCACT,0.0502
14,GGGAGGT,0.0304
15,TTCGTTG,-0.056
16,CATAAAT,-0.0602
17,ATCCAAT,0.00746
18,TCACCAG,-0.0903
19,GGGTCGC,-0.0355
20,CACAAGA,-0.0685
